Experimental data taken from PMC4120242 (Journal of immunology (Baltimore, Md. : 1950), 2014).
Values belong to the binder of their own block, whether it stands above or below them.

Key:
FcγRIIa on K562 cells = target: T1, FcγRIIa on K562 cells (human (endogenous in K562), UniProt P12318 34-317); assay: flow cytometry on cells
T1 sequence (looked up): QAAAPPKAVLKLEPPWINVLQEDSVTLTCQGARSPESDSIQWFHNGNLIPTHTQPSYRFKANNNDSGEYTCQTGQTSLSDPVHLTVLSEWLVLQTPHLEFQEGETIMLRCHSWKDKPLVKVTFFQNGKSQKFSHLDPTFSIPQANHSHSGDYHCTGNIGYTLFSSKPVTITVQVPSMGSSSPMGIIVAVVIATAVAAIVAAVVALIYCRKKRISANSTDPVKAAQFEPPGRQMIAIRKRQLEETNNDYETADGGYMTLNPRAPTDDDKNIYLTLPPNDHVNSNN

[1] = target: FcγRI expressed on HEK293 cells (UniProt P12314); assay: flow cytometry on cells
Chain of UniProt P12314 (P12314 16-374): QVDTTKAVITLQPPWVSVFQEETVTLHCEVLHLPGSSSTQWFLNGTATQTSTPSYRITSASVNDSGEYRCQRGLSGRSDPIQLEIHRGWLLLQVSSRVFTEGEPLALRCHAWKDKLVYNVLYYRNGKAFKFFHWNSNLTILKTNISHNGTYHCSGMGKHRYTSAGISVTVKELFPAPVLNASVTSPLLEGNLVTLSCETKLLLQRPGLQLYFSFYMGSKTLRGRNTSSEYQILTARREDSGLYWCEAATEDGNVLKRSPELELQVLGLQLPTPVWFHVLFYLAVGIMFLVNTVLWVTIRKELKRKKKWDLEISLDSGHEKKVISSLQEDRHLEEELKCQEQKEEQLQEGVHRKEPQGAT

SEC = target: the molecule itself; assay: SEC

Kd (FcγRIIa on K562 cells): 19.7 nM
Kd [1]: 4.6 nM
B1: Serum Amyloid P component (SAP), wildtype (natural protein)
chain: not shown
modifications: Alexa Fluor 647 (Alexa Fluor 647-NHS labelling) in the flow cytometry binding assays

B2: SAP variant K87A (natural protein)
chain: not shown
stoichiometry N (SEC): 5
